Sequences with one replicate were seen in a single cluster, so their values are uncertain.
These sequences were tested on ATP (assay: switch fluorescence ratio, 500 uM ATP over buffer (Cy3 cluster intensity, sum of 5 cycles each) (fold (ratio)); higher = stronger signal-on switching upon ATP binding; sequences stand for … in TCGTCGGCAGCGTCAGATGTGTATAAGAGACAGTTTTTTTTTTTTTTTTTTTTTTTTT…TC). Settings: aptamer strand: ATP DNA aptamer (quencher-CACCTGGGGGAGTATTGCGGAGGAAGG + anchor), 100 nM annealed; ATP concentration: 500 uM; one replicate.
Summary of the method: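 Cy3-labelled switching-strand clusters on a modified Illumina MiSeq flow-cell were annealed to 100 nM quencher-labelled ATP aptamer, imaged in selection buffer, then imaged after 15 min with 500 uM ATP at 22 °C. Five buffer/ATP cycles ran, with NaOH stripping and re-annealing between them. The fluorescence ratio is summed target-cycle over summed buffer-cycle Cy3 intensity per cluster, averaged per switch-domain sequence. Clusters outside 100-1000 RFU were excluded.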
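Note: ATP exposure 15 min at 22 °C before imaging.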

Row | Sequence | switch fluorescence ratio
1 | TAGGTCGCCC | 0.997
2 | TAGGTGAAGT | 1.03
3 | TAGGTGAATA | 0.993
4 | TAGGTGTAAG | 0.993
5 | TAGGTGTCTT | 1
6 | TAGGTGTTT | 1.03
7 | TAGGTTAGGT | 1.06
8 | TAGGTTGATT | 0.944
9 | TAGTAACGAC | 1.05
10 | TAGTAAGCGC | 0.952
11 | TAGTAAGTGG | 0.991
12 | TAGTACGTTT | 1.13
13 | TAGTAGATCC | 1.04
14 | TAGTATCTTG | 1
15 | TAGTATGACA | 1.02
16 | TAGTATGCTA | 0.984
17 | TAGTATTGAC | 0.978
18 | TAGTCAACG | 0.995
19 | TAGTCAGGAC | 1.05
20 | TAGTCCCAAT | 1.15
21 | TAGTCCCTAT | 1
22 | TAGTCGAAAC | 1
23 | TAGTCGTGG | 0.989
24 | TAGTCTACCC | 1.04
25 | TAGTCTGAAT | 1.01

Row | Sequence | switch fluorescence ratio
26 | TAGTGACAGT | 1.03
27 | TAGTGAGGAA | 0.968
28 | TAGTGATATT | 1.06
29 | TAGTGCTAAA | 1.01
30 | TAGTGCTGC | 1.04
31 | TAGTGGGCAC | 0.876
32 | TAGTGTGCGG | 0.989
33 | TAGTGTTGT | 1.02
34 | TAGTTAAAAC | 0.992
35 | TAGTTAACCA | 1.03
36 | TAGTTAGAG | 1.01
37 | TAGTTCAATC | 1.05
38 | TAGTTTCGCC | 0.992
39 | TAGTTTGAGA | 1.01
40 | TAGTTTT | 0.991
41 | TATAAAAACC | 1.03
42 | TATAAAAGAT | 1.01
43 | TATAAACGAT | 0.957
44 | TATAAAGCGA | 1.01
45 | TATAACAAAT | 1.03
46 | TATAACAATA | 1
47 | TATAACTTT | 1.02
48 | TATAAGAGAT | 1.07
49 | TATAAGGGAC | 1.1
50 | TATAATCACT | 1.01

Row | Sequence | switch fluorescence ratio
51 | TATAATGCGT | 0.96
52 | TATAATGCT | 0.997
53 | TATACCACCT | 1.28
54 | TATACCAGGT | 1.28
55 | TATACCGCAG | 3.75
56 | TATACCGTTC | 1.05
57 | TATACGGATC | 1.04
58 | TATACGGGCT | 1.01
59 | TATACGGGGT | 0.989
60 | TATACGGTGT | 0.972
61 | TATACGGTT | 0.945
62 | TATACGTAG | 1
63 | TATACGTGAC | 1.56
64 | TATACGTTAG | 0.991
65 | TATACTAGAT | 0.979
66 | TATACTGTCA | 1.11
67 | TATACTTGCT | 1.03
68 | TATAGAAATT | 1.06
69 | TATAGATAGC | 0.979
70 | TATAGATAGT | 1.02
71 | TATAGCAGTG | 1
72 | TATAGCGCGA | 1.01
73 | TATAGGACCG | 1.03
74 | TATAGGATCT | 0.969
75 | TATAGGGTAT | 0.966

Row | Sequence | switch fluorescence ratio
76 | TATAGGGTTC | 0.971
77 | TATAGTAGAC | 1.01
78 | TATAGTAGCG | 0.997
79 | TATAGTTCGA | 1.02
80 | TATAGTTCTG | 0.982
81 | TATAGTTGCT | 0.965
82 | TATATACATA | 1.05
83 | TATATACCCT | 1.07
84 | TATATACTTC | 1.08
85 | TATATAGGGT | 1
86 | TATATATCTT | 1.03
87 | TATATCACG | 1
88 | TATATCCGTG | 0.968
89 | TATATGCCTC | 0.962
90 | TATATGCGAA | 0.997
91 | TATATTCGT | 1.01
92 | TATATTGGTT | 0.981
93 | TATCAAGGCA | 0.952
94 | TATCAAGGT | 0.965
95 | TATCACACCG | 1
96 | TATCACGTAT | 1.17
97 | TATCAGCTAC | 2.55
98 | TATCAGGGGC | 1.05
99 | TATCAGGTGA | 1.42
100 | TATCAGTCGA | 1.02
